Laboratory results as given in the supplement of paper PMC8728848.
The other results are listed elsewhere or left out.

Key:
Experiment in all cases: glycan array binding signal (z-score within array); higher = stronger binding
Details in all cases: glycan notation: IUPAC condensed, linker removed
[1] = molecular target: Gal(b1-4)GalNAc(b1-3)[Fuc(a1-2)]Gal(b1-4)GlcNAc
Outline: (§1)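 The binding signal is a Z-score computed within each array and averaged over linkers. Arrays of the same protein sequence at different concentrations or buffers were also averaged together. Data originate from 3228 arrays in the Consortium for Functional Glycomics database, kept only where the protein sequence was available.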

Gal(b1-4)Glc = molecular target: Gal(b1-4)Glc
Outline: as §1

Gal(b1-4)Glc6S = molecular target: Gal(b1-4)Glc6S
Outline: as §1

Gal(b1-4)GlcNAc = molecular target: Gal(b1-4)GlcNAc
Outline: as §1

[2] = molecular target: Gal(b1-4)GlcNAc(a1-6)Gal(b1-4)GlcNAc
Outline: as §1

Gal(b1-4)GlcNAc(b1-2)Man = molecular target: Gal(b1-4)GlcNAc(b1-2)Man
Outline: as §1

[3] = molecular target: Gal(b1-4)GlcNAc(b1-2)Man(a1-3)Man(b1-4)GlcNAc(b1-4)GlcNAc
Outline: as §1

[4] = molecular target: Gal(b1-4)GlcNAc(b1-2)Man(a1-3)[Gal(b1-4)GlcNAc(b1-2)Man(a1-6)]Man(b1-4)GlcNAc(b1-4)GlcNAc
Outline: as §1

[5] = molecular target: Gal(b1-4)GlcNAc(b1-2)Man(a1-3)[Gal(b1-4)GlcNAc(b1-2)Man(a1-6)]Man(b1-4)GlcNAc(b1-4)[Fuc(a1-6)]GlcNAc
Outline: as §1

[6] = molecular target: Gal(b1-4)GlcNAc(b1-2)Man(a1-3)[Gal(b1-4)GlcNAc(b1-2)Man(a1-6)][Gal(b1-4)GlcNAc(b1-4)]Man(b1-4)GlcNAc(b1-4)[Fuc(a1-6)]GlcNAc
Outline: as §1

[7] = molecular target: Gal(b1-4)GlcNAc(b1-2)Man(a1-3)[Gal(b1-4)GlcNAc(b1-2)Man(a1-6)][GlcNAc(b1-4)]Man(b1-4)GlcNAc(b1-4)[Fuc(a1-6)]GlcNAc
Outline: as §1

[8] = molecular target: Gal(b1-4)GlcNAc(b1-2)Man(a1-3)[GlcNAc(b1-2)Man(a1-6)]Man(b1-4)GlcNAc(b1-4)GlcNAc
Outline: as §1

[9] = molecular target: Gal(b1-4)GlcNAc(b1-2)Man(a1-3)[GlcNAc(b1-4)][Gal(b1-4)GlcNAc(b1-2)Man(a1-6)]Man(b1-4)GlcNAc(b1-4)GlcNAc
Outline: as §1

[10] = molecular target: Gal(b1-4)GlcNAc(b1-2)Man(a1-3)[Man(a1-6)]Man(b1-4)GlcNAc(b1-4)GlcNAc
Outline: as §1

[11] = molecular target: Gal(b1-4)GlcNAc(b1-2)Man(a1-6)Man(b1-4)GlcNAc(b1-4)GlcNAc
Outline: as §1

[12] = molecular target: Gal(b1-4)GlcNAc(b1-2)Man(a1-6)[GlcNAc(b1-2)Man(a1-3)]Man(b1-4)GlcNAc(b1-4)GlcNAc
Outline: as §1

[13] = molecular target: Gal(b1-4)GlcNAc(b1-2)Man(a1-6)[Man(a1-3)]Man(b1-4)GlcNAc(b1-4)GlcNAc
Outline: as §1

[14] = molecular target: Gal(b1-4)GlcNAc(b1-2)[Gal(b1-4)GlcNAc(b1-4)]Man(a1-3)[Gal(b1-4)GlcNAc(b1-2)Man(a1-6)]Man(b1-4)GlcNAc(b1-4)GlcNAc
Outline: as §1

[15] = molecular target: Gal(b1-4)GlcNAc(b1-2)[Gal(b1-4)GlcNAc(b1-4)]Man(a1-3)[Gal(b1-4)GlcNAc(b1-2)[Gal(b1-4)GlcNAc(b1-6)]Man(a1-6)]Man(b1-4)GlcNAc(b1-4)GlcNAc
Outline: as §1

[16] = molecular target: Gal(b1-4)GlcNAc(b1-2)[Gal(b1-4)GlcNAc(b1-4)]Man(a1-3)[GlcNAc(b1-4)][Gal(b1-4)GlcNAc(b1-2)Man(a1-6)]Man(b1-4)GlcNAc(b1-4)GlcNAc
Outline: as §1

[17] = molecular target: Gal(b1-4)GlcNAc(b1-2)[Gal(b1-4)GlcNAc(b1-4)]Man(a1-3)[GlcNAc(b1-4)][Gal(b1-4)GlcNAc(b1-2)[Gal(b1-4)GlcNAc(b1-6)]Man(a1-6)]Man(b1-4)GlcNAc(b1-4)GlcNAc
Outline: as §1

[18] = molecular target: Gal(b1-4)GlcNAc(b1-2)[Gal(b1-4)GlcNAc(b1-6)]Man(a1-6)[Gal(b1-4)GlcNAc(b1-2)Man(a1-3)]Man(b1-4)GlcNAc(b1-4)GlcNAc
Outline: as §1

B1: SSR1 (Sclerotium rolfsii), A0A0M3KL30 (protein)
chain: TYKITVRVYQTNPDAFFHPVEKTVWKYANGGTWTITDDQHVLTMGGSGTSGTLRFHADNGESFTATFGVHNYKRWCDIVTNLAADETGMVINQQYYSQKNREEARERQLSNYQVKNAKGRNFQIVYTEAEGNDLHANLIIG
For B1, which “glycan array binding signal (z-score)” value [1] is on record?
Its value is -0.347.

And the “glycan array binding signal (z-score)” value (Gal(b1-4)Glc)?
The value was -0.337.

And the “glycan array binding signal (z-score)” value (Gal(b1-4)Glc6S)?
Its value is -0.345.

And the “glycan array binding signal (z-score)” value (Gal(b1-4)GlcNAc)?
Its value is -0.34.

And the “glycan array binding signal (z-score)” value [2]?
The value was -0.329.

And the “glycan array binding signal (z-score)” value (Gal(b1-4)GlcNAc(b1-2)Man)?
Its value is -0.331.

And the “glycan array binding signal (z-score)” value [3]?
The value was -0.324.

And the “glycan array binding signal (z-score)” value [4]?
Its value is -0.338.

What about the “glycan array binding signal (z-score)” value [5] of the same binder?
The value was -0.293.

What about the “glycan array binding signal (z-score)” value [6] of the same binder?
The value was -0.324.

And the “glycan array binding signal (z-score)” value [7]?
Its value is -0.334.

What about the “glycan array binding signal (z-score)” value [8] of the same binder?
The value was 1.85.

What about the “glycan array binding signal (z-score)” value [9] of the same binder?
Its value is -0.342.

And the “glycan array binding signal (z-score)” value [10]?
Its value is -0.323.

And the “glycan array binding signal (z-score)” value [11]?
Its value is -0.337.

What about the “glycan array binding signal (z-score)” value [12] of the same binder?
Its value is 3.01.

And the “glycan array binding signal (z-score)” value [13]?
Its value is -0.323.

And the “glycan array binding signal (z-score)” value [14]?
The value was -0.328.

And the “glycan array binding signal (z-score)” value [15]?
The value was -0.332.

What about the “glycan array binding signal (z-score)” value [16] of the same binder?
The value was -0.34.

And the “glycan array binding signal (z-score)” value [17]?
Its value is -0.33.

And the “glycan array binding signal (z-score)” value [18]?
Its value is -0.34.
